# In the supplement of paper PMC4604168 (melanoma cell lines):
# The other results are listed elsewhere or left out. Repeats are few or missing, and single values can be far off.
# Columns and labels:
# Test in all cases: cell count relative to DMSO control; melanoma cells; higher = more viable cells
# Conditions in all cases: library dose: low library concentration; 72 h
# MeWo = system: MeWo
# RPMI7951 = system: RPMI7951
# RVH-421 = system: RVH-421
# SkMel28 = system: SkMel28
# SkMel2 = system: SkMel2
# SkMel30 = system: SkMel30
# SkMel5 = system: SkMel5
# UACC257 = system: UACC257
# UACC62 = system: UACC62
# WM115 = system: WM115
# WM1716 = system: WM1716
# WM1745 = system: WM1745
# WM3526 = system: WM3526
# WM3619 = system: WM3619
# WM451Lu = system: WM451Lu
# MZ2-MEL = system: MZ2-MEL
# 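Also: cell number obtained by counting DAPI-stained nuclei in high-throughput microscope images with image analysis software, screen run in 1,536-well plates.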
Structure (SMILES),cell count (MeWo),cell count (RPMI7951),cell count (RVH-421),cell count (SkMel28),cell count (SkMel2),cell count (SkMel30),cell count (SkMel5),cell count (UACC257),cell count (UACC62),cell count (WM115),cell count (WM1716),cell count (WM1745),cell count (WM3526),cell count (WM3619),cell count (WM451Lu),cell count (MZ2-MEL)
"CCCCCCCCc1ccc(CCC(N)(CO)CO)cc1 [fingolimod] + Cc1ccc(NC(=O)c2cccc(N(C)C)c2)cc1NC(=O)c1ccc(O)cc1 [ZM336372] (first compound 2 µM, partner dose 2 µM)",94.8%,79.5%,99.6%,82.6%,90.3%,88.7%,84.7%,89%,62.1%,83.9%,83.2%,72.2%,83.5%,96.2%,87.4%,–
"CCCCCCCCc1ccc(CCC(N)(CO)CO)cc1 [fingolimod] + O=c1cc(-c2cccc3c2Sc2ccccc2S3)oc(N2CCOCC2)c1 [KU55933] (first compound 2 µM, partner dose 1 µM)",89.8%,95.4%,103%,70.5%,–,85.2%,107%,88%,77%,90.4%,83.8%,80.8%,66.1%,99.7%,106%,–
"Cc1ccc(NC(=O)c2cccc(N(C)C)c2)cc1NC(=O)c1ccc(O)cc1 + Oc1cc(-c2nc(-c3ccccc3)[nH]c2-c2ccncc2)ccc1Cl [L779450] (first compound 2 µM, partner dose 0.2 µM)",111%,98.3%,77.9%,73.4%,–,104%,89.8%,71.7%,65.4%,86.3%,95.2%,88.1%,73%,96.8%,105%,–
"COc1cc2c(Oc3ccc4[nH]c(C)cc4c3F)ncnc2cc1OCCCN1CCCC1 [cediranib] + c1cc(-c2cnn3cc(-c4ccc(OCCN5CCCCC5)cc4)cnc23)ccn1 [Dorsomorphin] (first compound 0.4 µM, partner dose 0.4 µM)",101%,104%,84.1%,103%,–,99.7%,93.2%,77.8%,89.1%,85.8%,104%,74.4%,89.4%,148%,83.1%,–
"NC(=O)c1ccc(N(C(N)=O)c2c(F)cccc2F)nc1-c1ccc(F)cc1F + CO[C@H]1C[C@@H]2CC[C@@H](C)[C@@](O)(O2)C(=O)C(=O)N2CCCC[C@H]2C(=O)O[C@H]([C@H](C)C[C@@H]2CC[C@@H](OCCO)[C@H](OC)C2)CC(=O)[C@H](C)/C=C(\C)[C@@H](O)[C@@H](OC)C(=O)[C@H](C)C[C@H](C)/C=C/C=C/C=C/1C [everolimus] (first compound 0.4 µM, partner dose 0.02 µM)",60.9%,79.4%,70%,52.4%,–,57.9%,–,–,65.4%,78.2%,90.7%,81.4%,76.3%,75%,88.6%,–
"COc1cc2c(Oc3ccc4[nH]c(C)cc4c3F)ncnc2cc1OCCCN1CCCC1 [cediranib] + COc1ccc(-c2ccc3c(N4CCOCC4)nc(N4C[C@@H](C)O[C@@H](C)C4)nc3n2)cc1CO [KU0063794] (first compound 0.4 µM, partner dose 0.02 µM)",113%,119%,96.1%,102%,–,96.6%,101%,61.4%,108%,100%,102%,113%,114%,98.7%,107%,97.2%
"Cc1ccc(NC(=O)c2cccc(N(C)C)c2)cc1NC(=O)c1ccc(O)cc1 + CC(C)(C)c1cnc(CSc2cnc(NC(=O)C3CCNCC3)s2)o1 [SNS-032] (first compound 2 µM, partner dose 0.01 µM)",104%,72.6%,109%,98.6%,–,123%,103%,106%,92.5%,108%,118%,101%,103%,95.6%,90.9%,–
"CCc1ccc(CCOc2ccc(CC3SC(=O)NC3=O)cc2)nc1 (stereo not given) [pioglitazone] + Oc1nc(-c2ccc(C(F)(F)F)cc2)nc2c1CSCC2 [XAV939] (first compound 2 µM, partner dose 2 µM)",96%,99.4%,107%,100%,–,118%,80.6%,83.7%,99.2%,94.9%,60.8%,71.8%,94.6%,95.8%,90.5%,97.9%
"CCc1ccc(CCOc2ccc(CC3SC(=O)NC3=O)cc2)nc1 (stereo not given) [pioglitazone] + O=c1cc(-c2cccc3c2Sc2ccccc2S3)oc(N2CCOCC2)c1 [KU55933] (first compound 2 µM, partner dose 1 µM)",96.4%,93.9%,95.1%,77.7%,–,88.4%,92.5%,90.7%,103%,95.8%,103%,99.1%,103%,97.5%,109%,104%
"Cc1ccc(NC(=O)c2cccc(N(C)C)c2)cc1NC(=O)c1ccc(O)cc1 + COC(=O)c1sccc1S(=O)(=O)Nc1ccc(Nc2ccccc2)cc1OC [GSK0660] (first compound 2 µM, partner dose 1 µM)",95.3%,86.6%,123%,89.4%,–,87.8%,99%,98.1%,92.2%,110%,103%,98.4%,96.9%,99.2%,115%,71.9%
"CCCCCCCCc1ccc(CCC(N)(CO)CO)cc1 [fingolimod] + O=C(CCCCCCC(=O)Nc1ccccc1)NO [vorinostat] (first compound 2 µM, partner dose 0.08 µM)",109%,80.7%,96.8%,80.5%,92.9%,93.1%,86.5%,99.4%,93.3%,88.6%,86.8%,89.7%,49.9%,69.8%,98.9%,–
"COc1cc2c(Oc3ccc4[nH]c(C)cc4c3F)ncnc2cc1OCCCN1CCCC1 [cediranib] + O=c1cc(-c2cccc3c2Sc2ccccc2S3)oc(N2CCOCC2)c1 [KU55933] (first compound 0.4 µM, partner dose 1 µM)",97.4%,107%,105%,95.1%,–,126%,102%,92.3%,102%,107%,107%,111%,105%,114%,98.4%,–
"COc1cc2c(Oc3ccc4[nH]c(C)cc4c3F)ncnc2cc1OCCCN1CCCC1 [cediranib] + Cc1cc([N+](=O)[O-])ccc1NS(=O)(=O)c1cc(Cl)ccc1Cl [FH535] (first compound 0.4 µM, partner dose 1 µM)",99.8%,95.1%,98.6%,91.2%,–,94.1%,93.8%,103%,95.8%,87.5%,71%,98.8%,101%,109%,95.9%,94.3%
"CN(NC(=O)CC(=O)NN(C)C(=S)c1ccccc1)C(=S)c1ccccc1 + N#Cc1c(O)c2c(-c3ccc(-c4ccccc4O)cc3)csc2[nH]c1=O [A769662] (first compound 0.006 µM, partner dose 2 µM)",112%,92.7%,90.3%,102%,–,87.5%,101%,86.4%,80.2%,86.9%,83.1%,55.9%,96.1%,78.9%,108%,–
"CCc1ccc(CCOc2ccc(CC3SC(=O)NC3=O)cc2)nc1 (stereo not given) [pioglitazone] + O=C(Nc1ccccc1)c1cc([N+](=O)[O-])ccc1Cl [GW9662] (first compound 2 µM, partner dose 2 µM)",100%,111%,102%,88.7%,–,102%,98.1%,91.5%,104%,94.3%,137%,94.2%,102%,85.6%,76.6%,95.3%
"CC(C)(C)c1cnc(CSc2cnc(NC(=O)C3CCNCC3)s2)o1 + COc1cc2ncnc(Nc3ccc(Oc4ccccc4)cc3)c2cc1OC [SrcI1] (first compound 0.01 µM, partner dose 2 µM)",99.2%,95.5%,116%,73.3%,–,105%,109%,96%,90.8%,107%,97.9%,89.7%,121%,128%,109%,–
